Results: PubChem BioAssay AID686979 (National Center for Advancing Translational Sciences (NCATS), 2013)
Among all 420,000 compounds or so, about 50,000 (12%) were called active. Inconclusive means that the source gave no clear call. Such entries were picked first, then a sample of the others. The call rests on the fitted dose curve; in most records, active means well fitted inhibition curve with a large enough effect; inconclusive means small, poorly fitted or top-dose-only effect; inactive means flat fitted curve, though single readings scatter. Potencies of inconclusive entries are left out as doubtful fits.
On the % scale 0 is the no-effect control and ±100 the full control effect; potency means the concentration at half of the fitted maximal effect; tags describe the fitted curve by direction and shape.

Experiment: qHTS for Inhibitors of human tyrosyl-DNA phosphodiesterase 1 (TDP1): qHTS in cells in presence of CPT; further: nearly all actives have a fitted effect of over 55% in size
Details: chicken DT40 Tdp1-/-;hTDP1 cells + 20 nM CPT, ATP luminescence, 48 h; activity change, negative = growth inhibition: at 46.2 µM (top of the series) unless noted
Summary of the method: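 Chicken DT40 Tdp1-/- cells stably complemented with human TDP1 were seeded at 400 cells/well in medium containing 20 nM camptothecin, exposed to pin-transferred compounds, and grown at 37 °C for at least 48 hr. Viability was read as ATP luminescence.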
With CCCCNC(=O)Oc1cccc(N2CCCC2=O)c1 the Potency was “inactive”. With O=C(CCCOc1ccc(Cl)cc1)N1CCCCCC1 the activity change, negative = growth inhibition was inconclusive: -30.3% [inhibitor]. In the case of CCCCn1c2nc3ccccc3nc2c2c(=O)n(-c3ccccc3)cnc21, the Potency is reported as inconclusive [inhibitor, single point]. For CCOc1cc(/C=C(\C#N)c2nc(-c3cccs3)c(NC(C)=O)s2)ccc1O, the Potency was active: 2.31 µM. In the case of CSc1nccc(-c2nn(-c3ccc(C)cc3)ccc2=O)n1, the Potency is reported as active: 7.31 µM. For O=C(Oc1ccccc1)N1CCC2(CC1)CN(c1ncccn1)C2, the Potency was inconclusive [inhibitor, single point]. With CCN(C(=O)C1CCN(S(=O)(=O)c2ccc3c(c2)CCCN3C(=O)C2CCC2)CC1)c1cccc(C)c1 the Potency was active: 16.4 µM. For Cc1ccc(NC(=O)Cn2c(=O)n(CCCCCC(=O)NCc3ccc(F)cc3)c(=O)c3sccc32)c(C)c1, the Potency was inconclusive [inhibitor, single point]. With COc1cccc(C=NNC(=O)c2ccncc2)c1O the Potency was active: 0.92 µM. With CCOc1ccc(NC(=O)CN(C)C(=O)c2ccccc2CCc2ccccc2)cc1OCC the Potency was active: 20.6 µM. In the case of Cc1cc(C)cc(Cn2c3ccc(NC(=O)NCc4ccccc4)cc3c(=O)n2C)c1, the Potency is reported as inconclusive [inhibitor, single point]. In the case of CCOc1ccc(Nc2nc3ccccc3n3nnnc23)cc1, the Potency is reported as inconclusive [inhibitor, single point]. In the case of COC(=O)CNC(=O)C(Cc1ccccc1)NS(=O)(=O)c1ccc2c(c1)c(=O)n(C)c(=O)n2C (stereo not given), the Potency is reported as “inactive”. In the case of COc1ccc(CCC(=O)NO)cc1, the Potency is reported as active: 11.2 µM. With CC(C)(CO)NC(=O)c1ccc2nc(Cc3cccc(Cl)c3)oc2c1 the Potency was “inactive”. With CN(C)Cc1c(O)ccc2occ(C(O)c3ccccc3)c12 (stereo not given) the Potency was “inactive”. In the case of O=C(COc1ccccc1)Nc1ccc(S(=O)(=O)N(Cc2ccccc2)c2ccccc2)cc1, the Potency is reported as inconclusive [inhibitor, single point]. With O=C(CSc1nc2ccc([N+](=O)[O-])cc2[nH]1)NC1CCCC1 the Potency was inconclusive [inhibitor, single point]. For Cc1c(C(=O)NCc2ccc(N(C)C)cc2)oc2c1-c1nn(Cc3cccc(Cl)c3)cc1CC2, the Potency was inconclusive [inhibitor, single point]. For COc1ccc(S(=O)(=O)N2CCC(C(=O)NCCC3=CCCCC3)CC2)cc1C, the Potency was inconclusive [inhibitor, single point]. With O=C(N/N=C/C=C/c1ccccc1)c1cccnc1 the Potency was active: 20.6 µM. For Cc1cccc2c1cnn2C(=O)CCC(=O)N1CC(C)CC(C)C1 (stereo not given), the Potency was inconclusive [inhibitor, single point]. With Cc1ccc(NC(=O)CC2OC(=O)c3ccccc32)cc1S(=O)(=O)N1CCOCC1 (stereo not given) the Potency was “inactive”. In the case of CCc1ccc(-n2c(SCC(=O)c3ccc4c(c3)NC(=O)CO4)nc3ccccc3c2=O)cc1, the Potency is reported as inconclusive [inhibitor, single point]. With Cc1ccc2nc(CCc3nc4ccc(C)cc4[nH]3)[nH]c2c1 the Potency was “inactive”. In the case of COc1cccc(/C=N/NC(=O)C(=O)N/N=C/c2cccc(OC)c2O)c1O, the Potency is reported as active: 1.03 µM. In the case of Nc1ccccc1C(=O)NCC1(c2ccccc2)CCCC1, the Potency is reported as inconclusive [inhibitor, single point]. In the case of O=C(c1ccc(-c2ccccc2)c(F)c1)C1CCCN(CCCn2cccn2)C1 (stereo not given), the Potency is reported as active: 16.4 µM. For O=C(CCN1C(=O)c2ccccc2S1(=O)=O)Nc1ccccc1F, the Potency was “inactive”. In the case of Cc1cc(C)cc(NC(=O)Cn2c(=O)oc3cc(S(=O)(=O)N4CCCC4)ccc32)c1, the Potency is reported as inconclusive [inhibitor, single point]. For CCOc1ccc(NC(=O)CN(C)C(=O)C2CC(=O)N(c3ccc4c(c3)OCCO4)C2)cc1OCC (stereo not given), the Potency was “inactive”. In the case of COc1ccc(-c2nc(-c3ccccc3)c(-c3ccccc3)[nH]2)cc1Br, the Potency is reported as active: 18.4 µM. In the case of NC(=S)NN=C1c2ccccc2-c2c(F)c(F)c(F)c(F)c21, the Potency is reported as active: 7.31 µM. For O=C(CNC(=S)N(CCCN1CCOCC1)Cc1cccs1)NC1CCCCCCC1, the Potency was inconclusive [inhibitor, single point]. In the case of COc1cccc(CNC(=O)c2cnc(N3CCCC3)nc2C)c1, the Potency is reported as “inactive”. In the case of CC(=O)Nc1ccc(-c2ccnc3c2CC(C)(C(=O)Nc2cccc(C(F)(F)F)c2)O3)cc1 (stereo not given), the Potency is reported as active: 14.6 µM. For CCNC(=O)C1(C)CCCN(Cc2cccc3c(OC)cc(C(=O)OCC)cc23)C1 (stereo not given), the Potency was inconclusive [inhibitor, single point]. For CCOC(=O)c1c(NC(=O)COC(=O)CNC(=O)c2ccco2)sc(C(C)=O)c1C, the Potency was “inactive”. In the case of COc1ccc(S(=O)(=O)c2cn(C)c3cc(N4CCCC4)c(F)cc3c2=O)cc1, the Potency is reported as inconclusive [inhibitor, single point]. With CCCOc1ccc(-c2c(C(=O)N/N=C/C3CC=CCC3)nnn2-c2nonc2N)cc1 (stereo not given) the Potency was inconclusive [inhibitor, single point]. In the case of CCCNC(=O)NC(=O)CSc1nnc(-c2c[nH]c3ccccc23)o1, the Potency is reported as inconclusive [inhibitor, partial curve]. For CC(=O)NCCOc1ccc2oc3ccccc3c2c1, the Potency was inconclusive [inhibitor, single point]. In the case of Cc1ccc(C(=O)C2=C(O)C(=O)N(Cc3cccnc3)C2c2ccc(OC(C)C)cc2)o1 (stereo not given), the Potency is reported as inconclusive [inhibitor, single point]. In the case of O=S(=O)(c1ccc2ccccc2c1)n1nc(-c2ccco2)nc1NCc1cccc(Cl)c1, the Potency is reported as inconclusive [inhibitor, single point]. In the case of CC(C)CCNC(=S)Nc1ccccn1, the Potency is reported as inconclusive [inhibitor, single point]. In the case of CCCn1c(O)c(N=NC(=O)c2ccco2)c2ccccc21, the Potency is reported as active: 13 µM. For CCOC(=O)C1=C(Cn2ccc(C(F)(F)F)n2)NC(=O)NC1c1ccc2c(c1)OCO2 (stereo not given), the Potency was inconclusive [inhibitor, single point]. In the case of CC(=O)NC12CC3CC(C1)CC(C(=O)N(C)Cc1cccc(Cl)c1Cl)(C3)C2, the Potency is reported as inconclusive [inhibitor, single point]. In the case of COc1ccc2c(=O)cc(-c3ccncc3)oc2c1OC, the Potency is reported as inconclusive [inhibitor, single point]. In the case of CCCN1C(=O)/C(=C/c2ccc(N3CCCC3)c(C)c2)NC1=S, the Potency is reported as active: 16.4 µM. With COc1cc2c(cc1OC)C(C)N(C(=O)Cn1ncc3c1-c1ccccc1OC3)CC2 (stereo not given) the Potency was inconclusive [inhibitor, single point]. In the case of Brc1cc2c(cc1C1OCCCO1)OCO2, the Potency is reported as “inactive”. In the case of O=C(C1CCCO1)N1CCN(C(=S)Nc2ccccc2Cl)CC1 (stereo not given), the Potency is reported as inconclusive [inhibitor, single point]. For O=C(Nc1ccc2c(c1)OCO2)Nc1cnccn1, the Potency was inconclusive [inhibitor, single point]. With Cc1ccccc1C(OCC(O)CN1CCCCC1CCO)c1ccccc1 (stereo not given) the Potency was inconclusive [inhibitor, partial curve]. With Cc1ccc(C(=O)CNc2ccccc2)cc1 the Potency was inconclusive [inhibitor, partial curve]. In the case of CCOc1ccccc1NC(=O)C1CCCN(S(=O)(=O)c2ccc3c(c2)C(C)(C)C(=O)N3C)C1 (stereo not given), the Potency is reported as active: 18.4 µM. In the case of Cc1nnc(SCC(=O)N2CCC(Cc3ccccc3)CC2)n(N)c1=O, the activity change, negative = growth inhibition is reported as inconclusive: -32% [inhibitor]. With CCOc1ccc(C2C(C(=O)c3ccc(C)o3)=C(O)C(=O)N2Cc2cccnc2)cc1 (stereo not given) the Potency was inconclusive [inhibitor, single point]. In the case of CCOc1cc(CNCCSc2nnnn2-c2ccccc2)cc(Cl)c1OC, the Potency is reported as inconclusive [inhibitor, single point]. For COc1ccc2cc(CN(CC3COCCO3)S(=O)(=O)c3ccc(Cl)cc3)c(=O)[nH]c2c1 (stereo not given), the Potency was “inactive”. In the case of CCOc1ccc(CCNC(=O)Cn2nnc(-c3ccc(OC)c(OC)c3)n2)cc1OCC, the Potency is reported as inconclusive [inhibitor, partial curve, poor fit]. With Cc1ccc(S(=O)(=O)/N=C2\C=C(Nc3cccc(C(=O)O)c3)C(=O)c3ccccc32)c(C)c1 the Potency was inconclusive [inhibitor, single point]. With COc1ccc(-c2cc(-c3ccc(Br)cc3)nc3ncnn23)cc1OC the Potency was inconclusive [inhibitor, single point]. For COc1ccc(CCNC(=O)CCN2C(=O)c3cccc4cccc(c34)C2=O)cc1OC, the activity change, negative = growth inhibition was inconclusive: -33.9% [inhibitor]. With COc1ccc(C)cc1N(CC(=O)Nc1cccc(N(C)S(C)(=O)=O)c1)S(C)(=O)=O the Potency was active: 20.6 µM. In the case of COc1ccc2cc(-c3cc(C(=O)OCC(=O)Nc4c(C)n(C)n(-c5ccccc5)c4=O)c4ccccc4n3)ccc2c1, the Potency is reported as active: 13 µM. In the case of Cc1ccc2nc(-c3ccc(NC(=O)COc4c(C)ccc(C)c4C)cc3)sc2c1, the Potency is reported as inconclusive [inhibitor, single point]. With O=C(NCc1ccc(F)cc1)c1cc(S(=O)(=O)N2CCCCC2)ccc1N1CCOCC1 the Potency was inconclusive [inhibitor, single point]. In the case of O=C(O)COc1ccc(/C=C/c2nc3ccc([N+](=O)[O-])cc3s2)cc1, the Potency is reported as inconclusive [inhibitor, single point].
